Hit rate of the full screen: of about 150,000 compounds, about 540 (0.36%) showed an effect of 50% or more. The list shows a part of the results.
The compounds below were run on Plasmodium falciparum (assay: Primary screen in NF54 nanoGlo assay, in single point, at 2uM, 72h; a lower Z score goes with more inhibition). Details: timepoint 72 hour.
Type: functional, Erythrocyte
With `Cc1csc(CNC(=O)[C@@H](C)C2CCOCC2)n1` the “% Inhibition” value was -3% and the Z score was 0.52.
With `c1cc2c(cc1CN1CCN3CCCC3C1C1CCCCC1)OCO2` (configuration not stated) the “% Inhibition” value was -21% and the Z score was 2.64.
For `Cc1nc(C(=O)NCC2C3CCc4ccccc4C32)c(=O)[nH]c1C` (configuration not stated), the “% Inhibition” value was -5% and the Z score was 0.71.
`Cc1ccc([C@@H]2CCCCCN2S(=O)(=O)Cc2ccccc2)s1` was tested, and the “% Inhibition” value was -4% and the Z score was 0.76.
`O=C(N[C@@H]1C[C@@H]2CC(C(=O)O)C[C@@H]21)c1ccc(-c2c[nH]cn2)cc1` (some centres not stated) was tested, and the “% Inhibition” value was -3% and the Z score was 0.56.
`CCNC(=O)C1CCN(C(=O)Nc2ccc(NC(=O)NC3CCCCC3)cc2)CC1` was tested, and the “% Inhibition” value was -8% and the Z score was 0.96.
In the case of `CCS(=O)(=O)CCn1cc(NC(=O)Cc2c(C)noc2C)cn1`, the “% Inhibition” value is reported as -12% and the Z score is reported as 1.21.
With `O[C@H]1C[C@H]2CC[C@@H](C1)N2c1ncc(F)c(N2CCOCC2)n1` the “% Inhibition” value was -6% and the Z score was 0.55.
`N#Cc1c(CN2CCn3ccnc3C2)cn2ccccc12` was tested, and the “% Inhibition” value was 7% and the Z score was -1.41.
With `Cc1cnc(C(=O)N2CC[C@H](OCc3ccccc3)C2)cn1` the “% Inhibition” value was -8% and the Z score was 0.93.
With `O[C@@H](COCc1ccccc1)Cn1cnnc1` the “% Inhibition” value was -4% and the Z score was 0.51.
`COc1ccccc1OCC#CCNC(=O)Nc1ccc(C)c(C)c1` was tested, and the “% Inhibition” value was -6% and the Z score was 0.94.
For `c1ccc(-c2noc(-c3cc(-c4ccc5ccccc5c4)n[nH]3)n2)cc1`, the “% Inhibition” value was -7% and the Z score was 0.81.
`Cc1ccc(-n2nc(C#N)c(N3CCOCC3)n2)cc1` was tested, and the “% Inhibition” value was 10% and the Z score was -1.2.
In the case of `COCCn1nc(C)c(NCc2cscn2)c1C`, the “% Inhibition” value is reported as -16% and the Z score is reported as 1.73.
With `COCC1(CS(=O)(=O)N[C@@H](C)Cc2c(C)noc2C)CCC1` the “% Inhibition” value was 33% and the Z score was -3.73.
For `O=C1CC[C@H](C(=O)N2CCCCCCC2)CN1Cc1ccccn1`, the “% Inhibition” value was -17% and the Z score was 3.26.
In the case of `COc1ccc([C@@H](C)COC(=O)c2ncoc2C)cc1`, the “% Inhibition” value is reported as 1% and the Z score is reported as -0.15.
For `CC(NC(=O)N(C)CC1CCCCC1O)c1ccncc1` (configuration not stated), the “% Inhibition” value was -4% and the Z score was 0.59.
For `CN1CCCc2ccc(NC(=O)c3ccc(CC4CCN(S(C)(=O)=O)CC4)cc3)cc21`, the “% Inhibition” value was 28% and the Z score was -3.46.
`O=C(NCC(=O)N1CC[C@H](CN2CCOCC2)C1)c1ccc(C(F)(F)F)cc1` was tested, and the “% Inhibition” value was 2% and the Z score was -0.32.
With `C[C@H]1C(=O)NCCCN1C(=O)c1coc(-c2ccccc2Cl)n1` the “% Inhibition” value was -7% and the Z score was 1.08.
For `Cc1c(CNC(=O)CN(C)S(=O)(=O)c2ccc3c(c2)OCCCO3)cnn1C`, the “% Inhibition” value was 0% and the Z score was -0.03.
`CNC(=O)[C@H](NC(=O)C1(CCOC)CCC1)c1ccc(F)c(F)c1` was tested, and the “% Inhibition” value was -5% and the Z score was 0.81.
For `CN1CCN([C@H]2CCN(C(=O)C(C)(C)c3ccccc3)C[C@H]2CCC(=O)O)CC1`, the “% Inhibition” value was -8% and the Z score was 1.64.
In the case of `CCn1cc(NC(=O)C2(NC(=O)OC(C)(C)C)CCCC2)cn1`, the “% Inhibition” value is reported as -9% and the Z score is reported as 1.04.
With `Cc1ccc2c(Nc3ccc(Cl)cc3)c(C(=O)N3CCOCC3)cnc2n1` the “% Inhibition” value was 2% and the Z score was -0.27.
With `Cn1ccnc1CCN1CCC(C)(C#N)CC1` the “% Inhibition” value was -1% and the Z score was 0.19.
In the case of `O=C(Nc1cccc(C(O)C(F)(F)F)c1)C1CCCCO1` (configuration not stated), the “% Inhibition” value is reported as -24% and the Z score is reported as 3.28.
`O=C(Cn1ccccc1=O)Nc1ccc2oc(C3CC3)nc2c1` was tested, and the “% Inhibition” value was -10% and the Z score was 0.99.
`N#Cc1ccccc1CN1CCC(Oc2ccccc2F)(C(=O)O)CC1` was tested, and the “% Inhibition” value was -22% and the Z score was 1.93.
`COc1cc(NC(=O)N2CC(C)(C)O[C@H]3COC[C@@H]32)n(C)n1` was tested, and the “% Inhibition” value was -3% and the Z score was 0.35.
With `COCCN(CC(=O)N(CCc1ccccc1)Cc1ccco1)C(=O)Nc1c(Cl)cccc1Cl` the “% Inhibition” value was -11% and the Z score was 1.42.
With `C=C1C(C)(C)[C@@H]2CC[C@@]1(C(=O)N1CCn3c(C(N)=O)cnc3C1)C2` the “% Inhibition” value was -14% and the Z score was 2.1.
In the case of `CCCNC(=O)C1CCN(c2nc3ncn(CC(=O)NC[C@H]4CCCO4)c(=O)c3s2)CC1`, the “% Inhibition” value is reported as -5% and the Z score is reported as 0.72.
`Cc1nc([C@@H]2CN(C)c3ccccc3O2)n(CCO)n1` was tested, and the “% Inhibition” value was 1% and the Z score was -0.12.
For `CN1C[C@@H](n2cnc3c(F)cccc3c2=O)CC1=O`, the “% Inhibition” value was -2% and the Z score was 0.27.
For `COC(=O)c1ccc(C)c(S(=O)(=O)Oc2ccc(N3CCN(C(C)=O)CC3)cc2)c1`, the “% Inhibition” value was 4% and the Z score was -0.54.
For `COc1cccc2c1C(C(=O)N1C[C@H](F)C[C@H]1C(=O)N1CCOCC1)CC2` (some centres not stated), the “% Inhibition” value was -3% and the Z score was 0.62.
With `CCN1C(=O)[C@@H]2CN(Cc3cnc(-c4ccccc4)o3)CCN2C1=O` the “% Inhibition” value was -2% and the Z score was 0.5.
With `Cn1nccc1Cc1noc(C2CCC2)n1` the “% Inhibition” value was -8% and the Z score was 0.93.
With `CCn1ccnc1CN1CCC[C@H](CCC(=O)N2CCN(c3ccccn3)CC2)C1` the “% Inhibition” value was -11% and the Z score was 1.65.
`COc1ccc(CCc2nc3nccc(-c4cccnc4)n3n2)cc1OC` was tested, and the “% Inhibition” value was 2% and the Z score was -0.41.
`COc1ccc(CC(=O)N2CCC[C@H]2c2ccncc2)cc1OC` was tested, and the Z score was 0.93.
With `CCc1ccc(C2CC(C)CCN2C(=O)Cc2cnn(C)c2)o1` (configuration not stated) the “% Inhibition” value was -4% and the Z score was 0.52.
With `O=C(NCc1cc(C2CC2)[nH]n1)c1cncc(F)c1` the “% Inhibition” value was 0% and the Z score was 0.
In the case of `O=C(CN1C(=O)c2ccccc2Oc2ncccc21)N1CCOCC1`, the “% Inhibition” value is reported as 8% and the Z score is reported as -1.2.
With `C[C@]1(O)CCN(Cc2ccc3c4c(cccc24)C(=O)OC3)C[C@@H]1O` the “% Inhibition” value was -1% and the Z score was 0.17.
`CC[C@H](Nc1ccc2c(c1)CCN2C(C)=O)C(=O)Nc1cc(C)on1` was tested, and the “% Inhibition” value was 4% and the Z score was -0.58.
`CCN(CC)[C@@]1(c2nnnn2C2CCCC2)CCN(C(=O)c2cc(C)on2)C1` was tested, and the “% Inhibition” value was -2% and the Z score was 0.26.
In the case of `Cc1nccn1CCn1ncc(N2CCc3ccccc3C2)cc1=O`, the “% Inhibition” value is reported as -17% and the Z score is reported as 3.28.
In the case of `Cc1ccc(S(=O)(=O)c2ncccc2CNCc2cccnc2)cc1`, the “% Inhibition” value is reported as -9% and the Z score is reported as 0.83.
In the case of `O=C(NC1CCCC1)C1C2CCC(C2)N1C(=O)NC1CCCCC1` (configuration not stated), the “% Inhibition” value is reported as -11% and the Z score is reported as 1.91.
In the case of `CN1CCN(C(=O)Cn2cc(NC(=O)c3occ4c3CCOC4)cn2)CC1`, the “% Inhibition” value is reported as 0% and the Z score is reported as -0.07.
